This note sets out measurements from PubChem BioAssay AID1159614 (National Center for Advancing Translational Sciences (NCATS), 2016).

In all, about 45,000 compounds went through this assay and about 65 (0.1%) were called active. The call rests on the fitted dose curve; in most records, active means well fitted activation curve with a large enough effect; inconclusive means small, poorly fitted or top-dose-only effect; inactive means no such curve, though single readings can be large or run the other way. The list shows a part of the results.

In this assay the target is Galactocerebrosidase (Homo sapiens) (UniProt P54803). Kind of assay: A Novel Cell-Based Assay to Identify Small Molecules for B -Galactocerebrosidase. Further: 0% is about no effect; nearly all actives have a fitted effect of over 65% in size. To be noted: 145M-Twi-hGALC-G270D cells (Twitcher mouse brain line with human GALC G270D), HMU-beta-Gal fluorescence, 48 h; series mostly up to 57.5 µM; activation: at the top concentration. The procedure, abridged: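 Fluorogenic HMU-b-Gal hydrolysis (0.1 mM final, pH 5.2 citrate-phosphate with 1 mg/mL sodium taurocholate; carbonate stop buffer) measures mutant GALC activity after compound treatment of live 145M-Twi Twitcher brain cells stably carrying human GALC-G270D, with wild-type GALC line alongside; activation sought.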
Chain of UniProt P54803 (P54803 whole entry, looked up): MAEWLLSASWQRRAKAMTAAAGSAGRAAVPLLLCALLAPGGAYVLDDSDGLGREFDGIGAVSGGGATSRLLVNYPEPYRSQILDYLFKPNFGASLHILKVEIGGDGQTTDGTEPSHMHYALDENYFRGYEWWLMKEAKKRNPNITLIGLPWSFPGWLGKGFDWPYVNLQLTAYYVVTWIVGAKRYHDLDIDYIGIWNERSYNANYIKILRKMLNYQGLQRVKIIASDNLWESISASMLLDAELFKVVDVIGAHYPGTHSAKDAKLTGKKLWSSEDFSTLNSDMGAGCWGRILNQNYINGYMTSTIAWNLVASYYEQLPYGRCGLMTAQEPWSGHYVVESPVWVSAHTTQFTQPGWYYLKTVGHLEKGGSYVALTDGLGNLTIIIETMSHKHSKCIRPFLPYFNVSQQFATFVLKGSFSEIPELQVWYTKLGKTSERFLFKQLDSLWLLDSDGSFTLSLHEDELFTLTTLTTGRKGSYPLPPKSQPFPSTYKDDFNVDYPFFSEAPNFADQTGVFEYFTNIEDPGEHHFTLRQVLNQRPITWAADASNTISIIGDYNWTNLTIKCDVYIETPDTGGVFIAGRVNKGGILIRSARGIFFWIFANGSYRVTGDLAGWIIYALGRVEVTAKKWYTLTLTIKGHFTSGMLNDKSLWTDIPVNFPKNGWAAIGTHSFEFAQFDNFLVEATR
In the case of `O=C(NCc1ccccc1Cl)c1cc2cccc3c2n1CCS3`, the “activation” value was inactive: -0.969%. Regarding `COc1cccc(CNC(=O)c2ccc3c(c2)nc2n3CCC(C)C2)c1OC` (stereo unspecified), the “activation” value is inactive: -6%.

Consider `COC(=O)c1ccccc1-n1c(CCC(=O)O)ccc1-c1ccccc1`, for which the “activation” value was inactive: -14.3%. `Cc1ccnc(NS(=O)(=O)c2ccc(NC(=O)c3nc(SC(C)C)ncc3Cl)cc2)n1`: the “activation” value was inactive: -15.4%. As for `COc1ccc(C(=O)NCC(c2ccco2)S(=O)(=O)c2cccs2)cc1OC` (stereo unspecified), the “activation” value is inactive: -19%.

For the molecule `COc1ccc(NC(=O)NC(C)c2c(-n3cccc3)sc3c2CCN(C)C3)c(OC)c1` (stereo unspecified), the “activation” value was inactive: -8.04%. The figure for `O=C(CSc1nnc2[nH]c(=O)cc(-c3ccccc3)n12)Nc1cc(C(F)(F)F)ccc1Cl` is inactive: 1.09%. The figure for `CCOc1ccc(NC(=O)CN(C)S(=O)(=O)c2cnc[nH]2)cc1` is inactive: -9.77%; for `Nc1c(C(=O)Nc2cccc(C(F)(F)F)c2)c2ccccn2c1C(=O)c1ccccc1` it is inactive: -14.2%; for `Brc1ccc2nc(SCCOc3ccccc3)[nH]c2c1` it is inactive: -14.1%.

As for `Cc1ccc2c(c1)N(C(=O)Nc1cccc3c1CCCC3)CC(C)O2` (stereo unspecified), the “activation” value was inactive: -21%. Regarding `COc1cc2c(cc1OC)C(COc1ccc3c(C)cc(=O)oc3c1)N(C(=O)CC(C)C)CC2` (stereo unspecified), the “activation” value was inactive: -7.19%.

`CC(=O)Nc1nonc1-c1nc2ccccc2n1Cc1ccccc1Br`: the “activation” value was inactive: -11.6%. As for `Cc1ccc2oc(-c3cc(NC(=O)/C=C/c4ccco4)ccc3Cl)nc2c1`, the “activation” value is inactive: 3.95%. Take `CCC1Nc2cc(Cl)c(S(N)(=O)=O)cc2S(=O)(=O)N1` (stereo unspecified): the “activation” value was inactive: -6.97%.

Consider `CN1CCN(C(CNC(=O)c2ccccc2)c2ccc3c(c2)OCO3)CC1` (stereo unspecified), for which the “activation” value is inactive: -13.6%. The figure for `CCOc1ccc(NC(=O)c2c(NC(=O)c3cccs3)sc3c2CCC(C(C)(C)C)C3)cc1` (stereo unspecified) is inactive: -11.9%; for `COc1ccccc1NC(=O)c1cc(S(=O)(=O)NCCC2=CCCCC2)ccc1F` it is inactive: -6.43%. Then `O=C(NCc1cccc(Cl)c1)C1CCCN(c2ncnc3onc(-c4ccc(F)cc4)c23)C1` (stereo unspecified), with inactive: -3.02%; and `CCn1c(=O)cc(SCC(=O)N2CCN(c3ccccc3F)CC2)c2ccccc21`, with inactive: -8.99%; and `COC(=O)c1cc(NC(=O)c2ccc(-c3ccc(Cl)cc3Cl)o2)cc(C(=O)OC)c1`, with inactive: -8.69%. With `COc1ccc(NC(=O)CCc2c(C)nc3c(-c4ccc(F)cc4)c(C)nn3c2C)c(OC)c1`, the “activation” value is inactive: -15.7%.

In the case of `Cc1ccccc1CN1CCCN(CC(=O)Nc2ccc3c(c2)OCCO3)S1(=O)=O`, the “activation” value is inactive: 1.52%. As to `Cc1cccc(Cn2nnc3c(=O)[nH]c(C4CCN(C(=O)c5ccc(F)cc5)CC4)nc32)c1`, the “activation” value is inactive: -13%. Then `CCOC(=O)c1noc2nc(C)n(Cc3ccc([N+](=O)[O-])cc3)c(=O)c12`, with inactive: -5.36%; and `CCc1ccc(NC(=O)N2CCN(C(=O)c3nsc4ccccc34)CC2)cc1`, with inactive: -1.51%; and `O=C(Nc1ccc(C(F)(F)F)cc1)N1CCC(N2CCCCC2)CC1`, with inactive: 7.72%. Then `CNC(=O)C1CCN(c2nc3ccccc3nc2C(F)(F)F)CC1`, with inactive: -6.15%. The figure for `CC(C)CN(CCNC(=O)c1cc(-c2ccc(Cl)s2)nc2ccccc12)CC(C)C` is inactive: -5.12%; for `CCCN(C(=O)Cn1cc(S(=O)(=O)N2CCN(c3ccccc3F)CC2)c2ccccc2c1=O)c1cccc(C)c1` it is inactive: -15.2%. Regarding `CCOc1ccc(OCC)c(Nc2nc3ccc(Cl)cc3n3cnnc23)c1`, the “activation” value is inactive: 1.1%. Then `COc1cccc(CNC(=O)Cn2c(C)c3cnn(-c4ccccc4)c(=O)c3c2C)c1`, with inactive: -11.4%; and `Cc1ccsc1CN1CCc2nc(N3CCN(c4ccccc4F)CC3)ncc2C1`, with inactive: -17.2%. On to `COc1cc(Cl)c(C)cc1NC(=O)c1cnc2c(-c3cccc(C)c3)c(C)nn2c1C`, for which the “activation” value is inactive: -10.9%. Consider `CNC(=O)c1ccc(CSc2nc3ccncc3n2Cc2ccc(C)cc2)cc1`, for which the “activation” value was inactive: -15.6%.

Consider `COCc1cc(C)nc2sc(C(=O)Nc3cc(C)ccc3F)c(N)c12`, for which the “activation” value is inactive: -7.6%. Turning to `Cc1cc(C)cc(N2CCn3c2nc2c3c(=O)n(CCCc3ccccc3)c(=O)n2C)c1`, the “activation” value is inactive: -7.27%. In the case of `CC(C)(C)C(=O)Cn1c(=O)n(-c2ccc(Cl)c(Cl)c2)c(=O)c2c3c(sc21)CCCC3`, the “activation” value is inactive: 2.54%. As for `Cc1ccc(-c2nc3cc(C(C)C)ccc3o2)cc1NC(=O)c1cc([N+](=O)[O-])ccc1N1CCOCC1`, the “activation” value was inactive: -9.31%. Then `CCOc1ccc(-c2noc(CSc3nnc(Cc4ccccc4)n3-c3cccc(C)c3)n2)cc1`, with inactive: -14.2%. The figure for `COCCCNC(=O)C1CCCN(c2nn3cc(-c4ccc(C)cc4)nc3s2)C1` (stereo unspecified) is inactive: -6.02%; for `CN(C(=O)CSc1nnc(-c2ccc([N+](=O)[O-])cc2)o1)c1ccccc1` it is inactive: -0.576%; for `Cc1ccc(CNC(=O)CCCn2c(=O)c3ccccc3n(Cc3ccc(Cl)cc3)c2=O)cc1` it is inactive: 0.846%.

As for `COc1ccc(CCNC(=O)Cn2cc(C(=O)c3ccc(F)cc3)c(=O)c3ccc(C)nc32)cc1OC`, the “activation” value was inactive: 13.2%. In the case of `Cc1ccc(CNC(=O)CCC(=O)N2CCSc3ccccc32)cc1`, the “activation” value is inactive: 3.72%.

As for `CCCn1ccc2c(OCC(=O)NCc3ccccc3Cl)cccc2c1=O`, the “activation” value was inactive: -14.7%. The figure for `O=C(CSc1nccn1Cc1ccccc1)NCc1ccccc1Cl` is inactive: -10.8%; for `CCc1ccccc1NC(=O)NCc1ccc2c(c1)CCN2C(=O)c1ccccc1` it is inactive: -17.1%.

Consider `COC(=O)c1c(-c2ccc(Cl)cc2)noc1N1CCN(c2cccc(C(F)(F)F)c2)CC1`, for which the “activation” value is inactive: -11.1%. In the case of `O=C(Nc1ccccc1C(=O)OCc1cc(=O)n2c3c(sc2n1)CCCC3)c1cccc(Cl)c1`, the “activation” value is inactive: -5.87%.

For `CC(C)Cn1cc(NC(=O)N2CCN(c3ccccc3F)CC2)c2ccccc2c1=O`, the “activation” value is inactive: -21.6%.

With `CC1(C)[C@@H]2CC[C@@]1(C)C(=O)C2`, the “activation” value is inactive: -10.6%. Then `Cc1cccc(C)c1Nc1c(-c2ccsc2)nc2ccc(Cl)cn12`, with inactive: -15.6%. Turning to `Cc1cc(C)nc(NS(=O)(=O)c2ccc(NC(=O)COc3ccc(C(C)(C)C)cc3)cc2)n1`, the “activation” value was inactive: -0.726%. The figure for `CCOC(=O)CC(NC(=O)N1CCC(CN2CCC(C)CC2)CC1)c1ccccc1` (stereo unspecified) is inactive: -16%; for `COc1cc(OC)cc(N2CCN(S(=O)(=O)c3ccc(-n4cnnn4)cc3)CC2)c1` it is inactive: -1.43%; for `O=c1c(N2CCN(c3cccc(C(F)(F)F)c3)CC2)csc2ccc(Cl)cc12` it is inactive: -10%.

As to `Cc1ccccc1CSc1nc2c(sc3ccccc32)c(=O)n1CCCOC(C)C`, the “activation” value is inactive: 5.06%. Then `COC(c1ccccc1)(c1ccccc1)[C@H](Oc1nc(C)cc(C)n1)C(=O)O`, with inactive: 4.09%; and `COC(=O)c1cc2oc3ccccc3c2n1Cc1cc(C)ccc1C`, with inactive: 6.7%. The figure for `COc1ccc(OC)c(CCNC(=O)c2cnn(-c3ccccc3)c2C2CCN(C(=O)OC(C)(C)C)CC2)c1` is inactive: -4.04%; for `COc1ccc(-c2cn3nc(N4CCCC(C(=O)NCc5ccccc5Cl)C4)sc3n2)cc1` (stereo unspecified) it is inactive: 4.43%. On to `CC(=O)c1cccc(NC(c2ccc(F)cc2)c2nnc(-c3ccccc3)o2)c1` (stereo unspecified), for which the “activation” value was inactive: -6.71%. Then `CCSc1nnc2c(n1)OC(CC)N(C(C)=O)c1ccccc1-2` (stereo unspecified), with inactive: -1.85%; and `Cc1ccc(-n2nnnc2CNC(=O)C(C)C)cc1C`, with inactive: -9.18%. For `Cc1nn(C)c2c1c(-c1ccccc1)cc(=O)n2C(C)C(=O)NCc1ccc(F)cc1` (stereo unspecified), the “activation” value was inactive: -9.16%. The figure for `O=C1CC(c2ccccc2)Cc2[nH]c(=O)c(-c3nc(-c4ccc(Cl)cc4)cs3)cc21` (stereo unspecified) is inactive: -14%; for `CCN1CCN(C(c2cccc(F)c2)c2c(O)cc(C)n(Cc3ccco3)c2=O)CC1` (stereo unspecified) it is inactive: -19.6%; for `O=C(NCc1cccc(F)c1)c1cccc(NC(=O)c2nsc3ccccc23)c1` it is inactive: -16.7%.

Turning to `COc1ccc(OC)c(C2c3c(oc4ccc(C)cc4c3=O)C(=O)N2CCCN(C)C)c1` (stereo unspecified), the “activation” value is inactive: -8.68%. The figure for `CCN(Cc1ccccc1)Cc1c(O)ccc2c(=O)c(-c3ccccc3Cl)c(C(F)(F)F)oc12` is inactive: -30.4%.

As to `CCc1ccc(Nc2nc(N)nc(CSc3nc4ccccc4s3)n2)cc1`, the “activation” value is inactive: -13.1%.

Turning to `CCc1ccccc1NS(=O)(=O)c1ccc2c(c1)OCC(C(=O)N1CCCC1)O2` (stereo unspecified), the “activation” value is inactive: -11.6%. Then `CCCN(CCC)C(=O)CSc1nc2sc3c(c2c(=O)n1-c1ccccc1)CCN(C(C)=O)C3`, with inactive: -8.11%; and `CCOCc1cc(CN2CCN(c3cccc(Cl)c3)CC2)c(O)c2ncccc12`, with inactive: -11.9%; and `CC(=O)Nc1cccc(NC(=O)c2c(-c3ccccc3)c(-c3ccccc3)nn(C)c2=O)c1`, with inactive: 2.74%.

As to `C=Cc1c(C)c2cc3[nH]c(cc4nc(cc5nc(cc1[nH]2)C(C)=C5CCC(=O)O)C(CCC(=O)O)=C4C)c(C)c3C=C`, the “activation” value is inactive: -10.5%. As for `O=c1c2c(-c3ccc(Cl)cc3)ccnc2[nH]n1-c1ccccc1`, the “activation” value was inactive: -6.18%.

`CC(=O)c1ccc(N2CCN(S(=O)(=O)c3ccc4[nH]c5c(c4c3)CCCC5)CC2)cc1`: the “activation” value is inactive: -6.79%. With `O=C(NCCC1=CCCCC1)c1ccc2c(c1)ncn2-c1ccc(F)c(F)c1`, the “activation” value was inactive: -14.4%. The figure for `CCOc1ccccc1C1CC(=O)Oc2c1c(=O)n(C)c1ccccc21` (stereo unspecified) is inactive: -11%; for `Cc1ccc(Cl)cc1NC(=O)Cn1c(=O)c2ccccc2n2nncc12` it is inactive: -14.7%. As to `CCC(C(=O)Nc1cc(-c2nc3cccnc3s2)ccc1C)c1ccccc1` (stereo unspecified), the “activation” value was inactive: -9.24%. Then `COc1cccc(CNC(=O)C2CCN(c3nnc(-n4c(C)ccc4C)s3)CC2)c1`, with inactive: -13.3%; and `Cc1cccc(-n2ncc3c(NC4CCCC4)ncnc32)c1`, with inactive: -13.7%; and `CCc1ccc(-n2nc3ccc(NC(=O)c4ccc(C#N)cc4F)cc3n2)cc1`, with inactive: 4.9%.

In the case of `Fc1ccc(-c2cn3cc(Cc4ccc(Cl)cc4)sc3n2)cc1`, the “activation” value is inactive: -7.81%. The figure for `CCC(CC)C(=O)Nc1cccc(-c2nc3ccccc3s2)c1` is inactive: 17.4%; for `CCOc1ccc(-c2nnc(SCC(=O)NCc3ccc(C)cc3)nc2-c2ccc(OCC)cc2)cc1` it is inactive: -8.74%; for `Cc1ccc(NC(=O)C2CCCN(S(=O)(=O)c3cccc4cccnc34)C2)c(C)c1` (stereo unspecified) it is inactive: -11.6%. The figure for `Cc1c(CC(=O)NCCc2ccc(Cl)cc2)c(=O)oc2c(C)c3occ(C(C)(C)C)c3cc12` is inactive: -11.6%; for `CCOC(=O)c1sc(NC(=O)c2cc(-c3ccc(F)cc3)on2)c(C(=O)OCC)c1C` it is inactive: -12.4%. On to `COC(=O)c1ccc2c(=O)n(CCCCCC(=O)N3CCN(c4ccc(OC)cc4)CC3)c(=O)[nH]c2c1`, for which the “activation” value is inactive: -7.97%. Consider `CCOC(=O)CSc1nc2ccc(NC(=O)c3ccccc3F)cc2s1`, for which the “activation” value is inactive: -1.16%. As for `Cc1ccccc1-c1nc2cc(NC(=O)COc3ccc(F)cc3)ccc2o1`, the “activation” value was inactive: -8.14%. The figure for `CCOC(=O)c1c(-c2ccccc2)csc1NC(=O)c1cc(-c2ccc(Cl)cc2)on1` is inactive: -3.71%.
